According to the supplement of paper PMC4967469:
Lines with a small IC50 respond at low doses; a limit (>, <) means that the fit lies beyond the doses tested. AUC is the area under the same curve over the 256-fold range up to the top dose, as a fraction; values near 1 show little effect. A top dose marked as inferred was calculated from the reported fits.

Assays:
Assay in all cases: Viability of human cancer cell lines after 72 h of drug (GDSC screen)
CAY10603 = compound: CC(C)(C)OC(=O)Nc1ccc(-c2cc(C(=O)NCCCCCCC(=O)NO)no2)cc1 [CAY10603]; conditions: top dose 20 µM; top dose inferred
Method: (§1)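 Human cancer cell lines in 384-well plates, medium with 10% serum, drug for 72 h over a 256-fold dose range (nine 2-fold or five 4-fold steps up to the top dose). Adherent lines were fixed and stained with the nucleic acid dye Syto60, suspension lines read with resazurin; signal relative to control wells, capped at 0 and 100%. One two-parameter sigmoid per drug and line, fitted in a mixed model over all curves with the slope shared within a line.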

CH5424802 = compound: CCc1cc2c(cc1N1CCC(N3CCOCC3)CC1)C(C)(C)c1[nH]c3cc(C#N)ccc3c1C2=O [CH5424802]; conditions: top dose 5.12 µM; top dose inferred
Method: as §1

ACHP (KIN001-260) = compound: N#Cc1c(C2CCNCC2)cc(-c2c(O)cccc2OCC2CC2)nc1N [ACHP (KIN001-260)]; conditions: top dose 20 µM; top dose inferred
Method: as §1

| Cell Line | AUC (CAY10603) | IC50 (CAY10603) [µM] | AUC (CH5424802) | IC50 (CH5424802) [µM] | AUC (ACHP (KIN001-260)) | IC50 (ACHP (KIN001-260)) [µM] |
| --- | --- | --- | --- | --- | --- | --- |
| HAL-01 (lymphoblastic leukaemia, suspension) | 0.333 | 0.456 | 0.763 | 1.64 | 0.889 | 18.2 |
| HC-1 (hairy cell leukaemia, suspension) | 0.256 | 0.258 | 0.983 | > 5.12 | 0.838 | 12.7 |
| HCC70 (breast, adherent) | 0.452 | 0.928 | 0.931 | > 5.12 | 0.979 | > 20 |
| HCC1143 (breast, adherent) | 0.62 | 3.06 | 0.884 | > 5.12 | 0.905 | > 20 |
| HCC1187 (breast, suspension) | 0.736 | 5.66 | 0.968 | > 5.12 | 0.984 | > 20 |
| HCC1500 (breast, adherent) | 0.627 | 2.84 | 0.972 | > 5.12 | 0.949 | > 20 |
| HCC1599 (breast, suspension) | 0.36 | 0.484 | 0.917 | > 5.12 | 0.948 | > 20 |
| HCC1806 (breast, adherent) | 0.606 | 2.38 | 0.972 | > 5.12 | 0.969 | > 20 |
| HCC-33 (small cell lung carcinoma, adherent) | 0.405 | 0.684 | 0.984 | > 5.12 | 0.972 | > 20 |
| HCC-44 (lung adenocarcinoma, adherent) | 0.386 | 0.614 | 0.98 | > 5.12 | 0.905 | > 20 |
| HCC-827 (lung adenocarcinoma, adherent) | 0.654 | 3.59 | 0.966 | > 5.12 | 0.982 | > 20 |
| HCE-4 (oesophagus, adherent) | 0.986 | > 20 | 0.99 | > 5.12 | 0.992 | > 20 |
| HD-MY-Z (Hodgkin lymphoma, adherent) | 0.49 | 1.17 | 0.968 | > 5.12 | 0.886 | > 20 |
| HDLM-2 (Hodgkin lymphoma, suspension) | 0.887 | > 20 | 0.988 | > 5.12 | 0.989 | > 20 |
| HDQ-P1 (breast, adherent) | 0.551 | 1.76 | 0.923 | > 5.12 | 0.985 | > 20 |
| HEL (acute myeloid leukaemia, semi-adherent) | 0.208 | 0.21 | 0.977 | > 5.12 | 0.91 | > 20 |

| Cell Line | AUC (CAY10603) | IC50 (CAY10603) [µM] | AUC (CH5424802) | IC50 (CH5424802) [µM] | AUC (ACHP (KIN001-260)) | IC50 (ACHP (KIN001-260)) [µM] |
| --- | --- | --- | --- | --- | --- | --- |
| HH (T-cell leukaemia, suspension) | 0.345 | 0.402 | 0.974 | > 5.12 | 0.683 | 4.84 |
| HL-60 (acute myeloid leukaemia, suspension) | 0.368 | 0.564 | 0.989 | > 5.12 | 0.956 | > 20 |
| HLE (liver, adherent) | 0.434 | 0.836 | 0.971 | > 5.12 | 0.97 | > 20 |
| HMV-II (melanoma, adherent) | 0.609 | 2.66 | 0.978 | > 5.12 | 0.873 | > 20 |
| HN (head and neck, adherent) | 0.868 | 16.4 | 0.988 | > 5.12 | 0.989 | > 20 |
| HO-1-N-1 (head and neck, adherent) | 0.635 | 2.86 | 0.987 | > 5.12 | 0.982 | > 20 |
| HO-1-u-1 (head and neck, adherent) | 0.568 | 1.9 | 0.987 | > 5.12 | 0.966 | > 20 |
| HOP-62 (lung adenocarcinoma, adherent) | 0.422 | 0.764 | 0.979 | > 5.12 | 0.935 | > 20 |
| HOP-92 (large cell lung carcinoma, adherent) | 0.764 | 8.39 | 0.984 | > 5.12 | 0.984 | > 20 |
| HOS (osteosarcoma, adherent) | 0.991 | > 20 | 0.992 | > 5.12 | 0.992 | > 20 |
| HPAC (pancreas, adherent) | 0.682 | 5 | 0.969 | > 5.12 | 0.961 | > 20 |
| HPAF-II (pancreas, adherent) | 0.896 | > 20 | 0.943 | > 5.12 | 0.97 | > 20 |
| HSC-3 (head and neck, adherent) | 0.739 | 5.32 | 0.989 | > 5.12 | 0.988 | > 20 |
| HT (B-cell lymphoma, suspension) | 0.296 | 0.351 | 0.987 | > 5.12 | 0.919 | > 20 |
| HT-3 (cervix, adherent) | 0.701 | 4.64 | 0.985 | > 5.12 | 0.975 | > 20 |
| HT-144 (melanoma, adherent) | 0.981 | > 20 | 0.978 | > 5.12 | 0.98 | > 20 |
